The source of these data is patent US7517874B2 (priority 2007, dated 2009).

The target of one experiment is human CB2 receptor (hCB2) (Homo sapiens, UniProt P34972). Kind of experiment: cell-based.
human CB2 receptor (hCB2), sequence (P34972 whole entry): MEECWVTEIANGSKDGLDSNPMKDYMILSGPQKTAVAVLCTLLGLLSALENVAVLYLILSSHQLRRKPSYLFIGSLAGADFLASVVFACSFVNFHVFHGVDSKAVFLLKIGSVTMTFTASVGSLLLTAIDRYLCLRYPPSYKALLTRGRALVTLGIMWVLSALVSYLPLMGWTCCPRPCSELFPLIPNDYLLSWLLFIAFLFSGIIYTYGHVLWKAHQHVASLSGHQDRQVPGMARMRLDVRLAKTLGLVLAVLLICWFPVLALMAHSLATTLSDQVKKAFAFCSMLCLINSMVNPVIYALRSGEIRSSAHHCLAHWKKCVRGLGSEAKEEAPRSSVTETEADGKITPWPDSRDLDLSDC
Settings: not given
In kind it is cell-based.
Compound `CN1CCn2c(-c3ccccc3)nc(C(=O)NCC3OCCO3)c2C1` [Compound 234, N-((1,3-dioxolan-2-yl)methyl)-7-methyl-3-phenyl-5,6,7,8-tetrahydroimidazo[1,5-a]pyrazine-1-carboxamide] had an EC50 of over 10000 nM. As for `CNC(=O)[C@@H](NC(=O)c1nc(Cl)n2c1CNCCC2)C(C)(C)C` [Compound 597, (S)-3-chloro-N-(3,3-dimethyl-1-(methylamino)-1-oxobutan-2-yl)-6,7,8,9-tetrahydro-5H-imidazo[1,5-a][1,4]diazepine-1-carboxamide], the EC50 is over 10000 nM. With `CNC(=O)[C@H](Cc1cscn1)NC(=O)c1nc(-c2cc(F)c(F)cc2F)n2c1CN(C)CCC2` [Compound 592, (S)-8-methyl-N-(1-(methylamino)-1-oxo-3-(thiazol-4-yl)propan-2-yl)-3-(2,4,5-trifluorophenyl)-6,7,8,9-tetrahydro-5H-imidazo[1,5-a][1,4]diazepine-1-carboxamide], the EC50 is over 10000 nM. As to `CNC(=O)[C@@H](NC(=O)c1nc(C2=CCC(C)CC2)n2c1CN(C)CC2)C(C)(C)C` (stereo partly drawn) [Compound 270, N-((S)-3,3-dimethyl-1-(methylamino)-1-oxobutan-2-yl)-7-methyl-3-(4-methylcyclohex-1-enyl)-5,6,7,8-tetrahydroimidazo[1,5-a]pyrazine-1-carboxamide], the EC50 was over 10000 nM. Compound `CNC(=O)c1ccc(-c2nc(C(=O)N[C@H](C(=O)NC)C(C)(C)C)c3n2CCCN(C)C3)cc1` [Compound 408] showed an EC50 of over 10000 nM. The same measure, in the same setting: for `CC(C)CN1CCn2c(-c3ccccc3)nc(C(=O)Nc3ccccc3)c2C1` [Compound 150, 7-isobutyl-N,3-diphenyl-5,6,7,8-tetrahydroimidazo[1,5-a]pyrazine-1-carboxamide] the value was over 10000 nM; for `Cc1noc([C@@H](NC(=O)c2nc(-c3ccccc3)n3c2CN(C(C)C)CC3)C(C)(C)C)n1` [Compound 89, (S)-N-(2,2-dimethyl-1-(3-methyl-1,2,4-oxadiazol-5-yl)propyl)-7-isopropyl-3-phenyl-5,6,7,8-tetrahydroimidazo[1,5-a]pyrazine-1-carboxamide], over 10000 nM.

Staying with this experiment, now noted: agonist or inverse agonist at hCB2.
Consider `CNC(=O)[C@@H](NC(=O)c1nc(-c2ccccc2)n2c1CN(C)CC2)c1ccccc1` [Compound 207, (S)-7-methyl-N-(2-(methylamino)-2-oxo-1-phenylethyl)-3-phenyl-5,6,7,8-tetrahydroimidazo[1,5-a]pyrazine-1-carboxamide], for which the “+/− HCB2” value is “+”. Consider `CNC(=O)[C@@H](NC(=O)c1nc(-c2ccccc2)n2c1CN(C1CC1)CCC2)C(C)(C)C` [Compound 199, (S)-8-cyclopropyl-N-(3,3-dimethyl-1-(methylamino)-1-oxobutan-2-yl)-3-phenyl-6,7,8,9-tetrahydro-5H-imidazo[1,5-a][1,4]diazepine-1-carboxamide], for which the “+/− HCB2” value is given as “+”. Take `C=C(c1ccccc1)c1nc(C(=O)N[C@H](C(=O)NC)C(C)(C)C)c2n1CCCN(C)C2` [Compound 455, (S)-N-(3,3-dimethyl-1-(methylamino)-1-oxobutan-2-yl)-8-methyl-3-(1-phenylvinyl)-6,7,8,9-tetrahydro-5H-imidazo[1,5-a][1,4]diazepine-1-carboxamide]: the “+/− HCB2” value is on record as “+”. On to `CNC(=O)[C@@H](NC(=O)c1nc(-c2ccc(C#N)cc2)n2c1CN(C)CCC2)C(C)(C)C` [Compound 342], for which the “+/− HCB2” value is “+”. Consider `CNC(=O)[C@@H](NC(=O)c1nc(C=C(C)C)n2c1CN(C)CC2)C(C)(C)C` [Compound 257, (S)-N-(3,3-dimethyl-1-(methylamino)-1-oxobutan-2-yl)-7-methyl-3-(2-methylprop-1-enyl)-5,6,7,8-tetrahydroimidazo[1,5-a]pyrazine-1-carboxamide], for which the “+/− HCB2” value is “+”. On the same count and under the same terms, with `CNC(=O)[C@@H](NC(=O)c1nc(-c2ccccc2)n2c1CN(c1cccc(Cl)n1)CC2)C(C)(C)C` [Compound 299, (S)-7-(6-chloropyridin-2-yl)-N-(3,3-dimethyl-1-(methylamino)-1-oxobutan-2-yl)-3-phenyl-5,6,7,8-tetrahydroimidazo[1,5-a]pyrazine-1-carboxamide] the entry was “−”; with `CNC(=O)[C@@H](NC(=O)c1nc(-c2csc3ccccc23)n2c1CN(C)CC2)C(C)(C)C` [Compound 75, (S)-3-(benzo[b]thiophen-3-yl)-N-(3,3-dimethyl-1-(methylamino)-1-oxobutan-2-yl)-7-methyl-5,6,7,8-tetrahydroimidazo[1,5-a]pyrazine-1-carboxamide], “+”; with `CNC(=O)[C@@H](NC(=O)c1nc(C(C)c2ccccc2)n2c1CN(C)CCC2)C(C)(C)C` (stereo partly drawn) [Compound 506, N-((S)-3,3-dimethyl-1-(methylamino)-1-oxobutan-2-yl)-8-methyl-3-(1-phenylethyl)-6,7,8,9-tetrahydro-5H-imidazo[1,5-a][1,4]diazepine-1-carboxamide], “+”.

In the case of `CC(C)NC(=O)[C@@H](NC(=O)c1nc(-c2ccccc2)n2c1CN(C)CCC2)C(C)(C)C` [Compound 472, (S)-N-(1-(isopropylamino)-3,3-dimethyl-1-oxobutan-2-yl)-8-methyl-3-phenyl-6,7,8,9-tetrahydro-5H-imidazo[1,5-a][1,4]diazepine-1-carboxamide], the “+/− HCB2” value is recorded as “+”. Regarding `CNC(=O)[C@@H](NC(=O)c1nc(-c2ccc(F)c(C)c2)n2c1CNCC2)C(C)(C)C` [Compound 7, (S)-N-(3,3-dimethyl-1-(methylamino)-1-oxobutan-2-yl)-3-(4-fluoro-3-methylphenyl)-5,6,7,8-tetrahydroimidazo[1,5-a]pyrazine-1-carboxamide], the “+/− HCB2” value is reported as “+”. On to `CNC(=O)[C@@H](NC(=O)c1nc(/C=C/c2ccccc2)n2c1CN(C)CCC2)C(C)(C)C` [Compound 336, (S,E)-N-(3,3-dimethyl-1-(methylamino)-1-oxobutan-2-yl)-8-methyl-3-styryl-6,7,8,9-tetrahydro-5H-imidazo[1,5-a][1,4]diazepine-1-carboxamide], for which the “+/− HCB2” value was “+”.

For `CC(C)C[C@H](NC(=O)c1nc(-c2cc(Cl)ccc2F)n2c1CN(C)CCC2)C(N)=O` [Compound 569, (S)-N-(1-amino-4-methyl-1-oxopentan-2-yl)-3-(5-chloro-2-fluorophenyl)-8-methyl-6,7,8,9-tetrahydro-5H-imidazo[1,5-a][1,4]diazepine-1-carboxamide], the “+/− HCB2” value is recorded as “+”. Take `CC(=O)N1CCn2c(-c3ccccc3)nc(C(=O)Nc3ccccc3)c2C1` [Compound 173, 7-acetyl-N,3-diphenyl-5,6,7,8-tetrahydroimidazo[1,5-a]pyrazine-1-carboxamide]: the “+/− HCB2” value is “+”. Regarding `CN1CCCn2c(-c3cc(F)ccc3F)nc(C(=O)N[C@H](C(N)=O)C(C)(C)C)c2C1` [Compound 575, (S)-N-(1-amino-3,3-dimethyl-1-oxobutan-2-yl)-3-(2,5-difluorophenyl)-8-methyl-6,7,8,9-tetrahydro-5H-imidazo[1,5-a][1,4]diazepine-1-carboxamide], the “+/− HCB2” value is “+”.

Still in this experiment, the particulars now being: groups >100 nM-10 μM and >10 μM; cAMP, CHO-K1 hCB2; read-out: EC50 HCB2.
`CC(CO)NC(=O)c1nc(-c2ccccc2)n2c1CN(C)CC2` (stereo not shown) [Compound 231, N-(1-hydroxypropan-2-yl)-7-methyl-3-phenyl-5,6,7,8-tetrahydroimidazo[1,5-a]pyrazine-1-carboxamide]: the EC50 was over 10000 nM.
